Reference: PubChem BioAssay AID2147 (National Center for Advancing Translational Sciences (NCATS), 2009)
In all, about 230,000 compounds went through this assay and about 3,600 (1.6%) were called active. The inconclusive results got no clear call from the source; some entries with a clear call stand among them for comparison. Calls follow the shape of the dose curve; as a rule, active = well fitted inhibition curve with a large enough effect (not every such curve was filed as active); inconclusive = small, poorly fitted or top-dose-only effect, or another doubt; inactive = no such curve, though single readings can be large or run the other way. A potency beside an inconclusive call is a rough fit, not a confirmed value.

Each compound was assayed against Lysine-specific demethylase 4E (Homo sapiens) (UniProt B2RXH2) (assay: qHTS Assay for Inhibitors of Human Jumonji Domain Containing 2E (JMJD2E)). Conditions: JMJD2E catalytic domain, FDH-coupled NADH fluorescence (FDH is formaldehyde dehydrogenase); series mostly up to 57.1 µM.
Chain of UniProt B2RXH2 (B2RXH2 whole entry, looked up, the tested form may be a part): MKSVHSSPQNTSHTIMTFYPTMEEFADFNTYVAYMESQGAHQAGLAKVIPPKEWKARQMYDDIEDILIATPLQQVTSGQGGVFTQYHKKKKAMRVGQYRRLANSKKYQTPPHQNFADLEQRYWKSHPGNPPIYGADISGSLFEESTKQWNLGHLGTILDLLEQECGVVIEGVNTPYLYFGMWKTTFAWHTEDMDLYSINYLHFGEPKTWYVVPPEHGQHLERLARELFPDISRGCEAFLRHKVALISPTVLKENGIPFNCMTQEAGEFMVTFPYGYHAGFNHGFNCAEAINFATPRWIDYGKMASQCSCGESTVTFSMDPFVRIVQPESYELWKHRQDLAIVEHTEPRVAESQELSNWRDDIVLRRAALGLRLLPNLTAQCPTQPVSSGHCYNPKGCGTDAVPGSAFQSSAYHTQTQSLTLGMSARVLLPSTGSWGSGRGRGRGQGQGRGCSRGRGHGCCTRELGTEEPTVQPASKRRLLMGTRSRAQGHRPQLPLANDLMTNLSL
Also: nearly all actives have a fitted effect of over 50% in size.
Potency is read from the fitted curve at half-maximal effect; tags tell the direction and shape of the fitted curve.

Question: With `COCC(C)Nc1ncnc2c1cnn2-c1ccc(Cl)cc1` (centres undefined) as the compound, how does the Potency read?
Answer: Its Potency is inconclusive: 25.1 µM [inhibitor, partial curve].

Question: With `O=c1nc2c(-c3ccccc3F)n[nH]n2c2ccccc12` as the compound, how does the Potency read?
Answer: The Potency was inconclusive: 25.1 µM [inhibitor, partial curve].

Question: For `CCOC(=O)C1=C(C)NC(=S)NC1C` (centres undefined), which Potency is on record?
Answer: The Potency was “inactive”.

Question: Which Potency does the source give for `CN1/C(=C/C2CC(=O)NC2=O)C(C)(C)c2ccccc21` (centres undefined) here?
Answer: The Potency was inconclusive: 35.5 µM [inhibitor, single point].

Question: For `CCOC(=O)c1snc2c(=O)[nH]cnc12`, which Potency is on record?
Answer: The Potency was inconclusive: 28.2 µM [inhibitor, partial curve].

Question: With `NC(=O)[C@H]1CC2(CC(c3cccc(NC(=O)CC(c4ccccc4)c4ccccc4)c3)=NO2)CN1C(=O)CC(c1ccccc1)c1ccccc1` (some centres undefined) as the compound, how does the Potency read?
Answer: The Potency was inconclusive: 39.8 µM [inhibitor, single point].

Question: For `CCn1cc(C2C(C(=O)Nc3ccc(Br)cn3)=C(C)NC3=C2C(=O)CCC3)c(C)n1` (centres undefined), which Potency is on record?
Answer: Its Potency is inconclusive: 35.5 µM [inhibitor, single point].

Question: `COC(=O)/C(=C1/Oc2ccc(C(C)(C)C)cc2S1)C(F)(F)F` was tested. Which Potency did it give?
Answer: Its Potency is “inactive”.

Question: `O=C(N/C(=C\c1ccc([N+](=O)[O-])cc1)C(=O)N1CCCCC1)c1ccccc1Br` was tested. Which Potency did it give?
Answer: Its Potency is “inactive”.

Question: For `CCc1nn(C(C)C(=O)Nc2cccc(C)c2C)c(=O)c2cc3occc3n12` (centres undefined), which Potency is on record?
Answer: The Potency was inconclusive: 39.8 µM [inhibitor, single point].

Question: For `S=c1[nH]nc(Cc2cccs2)n1-c1cccc2ccccc12`, which Potency is on record?
Answer: The Potency was inconclusive: 25.1 µM [inhibitor, partial curve].

Question: Which Potency does the source give for `COc1ccc(CCNC(=O)CSc2ccccn2)cc1OC` here?
Answer: The Potency was “inactive”.

Question: How did the Potency turn out when `Cc1cc(C)nc(N2N=C(CSc3ccc(Cl)cc3)CC2=O)n1` was run?
Answer: The Potency was “inactive”.

Question: With `N#C/C(=C\c1ccc(OC(=O)c2ccc(Br)s2)cc1)c1nc2ccccc2[nH]1` as the compound, how does the Potency read?
Answer: Its Potency is active: 17.8 µM.

Question: For `CCCC(=O)NC(c1ccc(N(C)C)cc1)c1c(O)ccc2ccccc12` (centres undefined), which Potency is on record?
Answer: Its Potency is inconclusive: 35.5 µM [inhibitor, single point].

Question: For `CN(C1CCS(=O)(=O)C1)S(=O)(=O)c1ccccc1` (centres undefined), which Potency is on record?
Answer: Its Potency is “inactive”.

Question: `COC(=O)c1ccccc1OCCOCCOc1cccc2ccc(C)nc12` was tested. Which Potency did it give?
Answer: The Potency was inconclusive: 31.6 µM [inhibitor, single point].

Question: How did the Potency turn out when `COc1ccccc1-c1nccc(NCc2cnc(C)cn2)n1` was run?
Answer: The Potency was inconclusive: 20 µM [inhibitor, partial curve].

Question: Which Potency does the source give for `CN(C)/C=C/C(=O)c1ccc(Cl)s1` here?
Answer: The Potency was inconclusive: 35.5 µM [inhibitor, single point].

Question: Which Potency does the source give for `CC(=O)c1ccc(N(C(=O)CS(=O)CC(=O)Nc2ccc(F)cc2)C(C(=O)NC2CCCCC2)c2cccs2)cc1` (centres undefined) here?
Answer: The Potency was inconclusive: 39.8 µM [inhibitor, single point].

Question: With `Cc1ccc(S(=O)(=O)N(CCCN2CCCC2=O)Cc2cc3c(C)ccc(C)c3[nH]c2=O)cc1` as the compound, how does the Potency read?
Answer: Its Potency is inconclusive: 28.2 µM [inhibitor, partial curve].

Question: `Cc1cccc(N2CCC(N3CCN(C4CCCCC4)C(CCO)C3)CC2)c1C` (centres undefined) was tested. Which Potency did it give?
Answer: The Potency was inconclusive: 28.2 µM [inhibitor, partial curve].

Question: For `CC(=O)c1cc2ccccc2oc1=O`, which Potency is on record?
Answer: The Potency was inconclusive: 10 µM [inhibitor, single point].

Question: `COc1cc(C(=O)NC(=S)Nc2ccc(Cl)c(C(=O)O)c2)cc(OC)c1OC` was tested. Which Potency did it give?
Answer: The Potency was “inactive”.

Question: How did the Potency turn out when `OB(O)c1cc2ccccc2o1` was run?
Answer: Its Potency is inconclusive: 31.6 µM [inhibitor, single point].

Question: With `COc1ccc(-c2cc(=O)c3cc(F)ccc3[nH]2)cc1` as the compound, how does the Potency read?
Answer: Its Potency is inconclusive: 31.6 µM [inhibitor, partial curve].

Question: For `COc1cccc(OCCn2cc(C(=O)c3ccco3)c3ccccc32)c1`, which Potency is on record?
Answer: The Potency was inconclusive: 35.5 µM [inhibitor, single point].

Question: With `COC(=O)Cc1ccc(NC(=S)N2CCN(c3ccc(F)cc3)CC2)cc1` as the compound, how does the Potency read?
Answer: The Potency was “inactive”.

Question: For `Cc1ccc2nc(C)c(C(=O)NN=C3CCCCCC3)n2c1`, which Potency is on record?
Answer: The Potency was “inactive”.

Question: `COC(=O)C(Cc1c[nH]c2ccccc12)NC(=O)c1cc(-c2ccc(OC)c(OC)c2)oc1C` (centres undefined) was tested. Which Potency did it give?
Answer: Its Potency is “inactive”.

Question: How did the Potency turn out when `CCOc1ccc(Oc2c(/C=N/NC(N)=O)c(C)nn2-c2ccccc2)cc1` was run?
Answer: Its Potency is “inactive”.

Question: Which Potency does the source give for `CN(C)CCCNc1ccc(-c2cc(Nc3cccc(Cl)c3)ncn2)cn1` here?
Answer: Its Potency is inconclusive: 35.5 µM [inhibitor, single point].

Question: How did the Potency turn out when `O=C(c1ccc(Nc2cccc(C(F)(F)F)c2)nc1)N1CCCC1` was run?
Answer: The Potency was inconclusive: 31.6 µM [inhibitor, partial curve].

Question: How did the Potency turn out when `CC(=O)Nc1ccc(S(=O)(=O)n2nc(-c3ccc(C)cc3)nc2N)cc1` was run?
Answer: The Potency was “inactive”.

Question: Which Potency does the source give for `OC(COc1ccc(CNCCc2ccccc2F)cc1)CN1CCCCC1` (centres undefined) here?
Answer: The Potency was “inactive”.

Question: For `COC(=O)Nc1ccc(S(=O)(=O)N2CCCC(C(=O)N3CCN(C)CC3)C2)cc1` (centres undefined), which Potency is on record?
Answer: The Potency was “inactive”.

Question: Which Potency does the source give for `CC(C)OC(=O)CC(=O)CSc1nc2c(cc1C#N)CCC2` here?
Answer: Its Potency is inconclusive: 28.2 µM [inhibitor, partial curve].

Question: For `CCNC(=S)NCCN1CCCCC1`, which Potency is on record?
Answer: Its Potency is “inactive”.

Question: For `CCOC(=O)c1[nH]c(C)c(C(=O)Nc2cc(OC)ccc2OC)c1C`, which Potency is on record?
Answer: The Potency was “inactive”.

Question: With `C=CCn1c(-c2cccc(OC)c2)nc2nc3ccccc3nc21` as the compound, how does the Potency read?
Answer: The Potency was inconclusive: 39.8 µM [inhibitor, single point].

Question: Which Potency does the source give for `COc1ccccc1N1CCN(C2CCN(C(=O)c3cccc(F)c3)CC2)CC1` here?
Answer: Its Potency is inconclusive: 25.1 µM [inhibitor, single point].

Question: Which Potency does the source give for `Cc1ccc2cc(CN(CC(C)C)C(=O)C3CCCO3)c(=O)[nH]c2c1` (centres undefined) here?
Answer: The Potency was inconclusive: 39.8 µM [inhibitor, single point].

Question: With `COc1ccc(-c2nn(-c3ccccc3)cc2/C=N/NC(=O)c2ccc(Br)o2)cc1` as the compound, how does the Potency read?
Answer: The Potency was inconclusive: 28.2 µM [inhibitor, single point].

Question: `Cc1nc(NC(=S)NC(=O)c2cncc(Br)c2)ccc1Br` was tested. Which Potency did it give?
Answer: The Potency was inconclusive: 0.794 µM [inhibitor, single point].

Question: Which Potency does the source give for `CCOC(=O)c1nc(Nc2ccc(C(=O)OC)cc2)c2ccccc2n1` here?
Answer: The Potency was inconclusive: 35.5 µM [inhibitor, single point].

Question: For `N#C/C=C(/N)c1ccc(Br)cc1`, which Potency is on record?
Answer: Its Potency is “inactive”.

Question: For `O=C(O)c1ccc2c(=O)n(-c3ccccc3)c(=S)[nH]c2c1`, which Potency is on record?
Answer: The Potency was inconclusive: 28.2 µM [inhibitor, single point].

Question: For `Cc1cccc(N2C(=O)/C(=C\c3ccc(C(=O)O)cc3)c3ccccc3C2=O)c1`, which Potency is on record?
Answer: Its Potency is “inactive”.

Question: Which Potency does the source give for `CCOC(=O)c1c(CSc2ccccc2)n(C)c2cc(Br)c(OCC(O)CNC(CO)(CO)CO)cc12` (centres undefined) here?
Answer: Its Potency is inconclusive: 39.8 µM [inhibitor, single point].

Question: For `O=C(N/N=C/c1ccccn1)c1ccc(S(=O)(=O)N2CCCCCC2)cc1`, which Potency is on record?
Answer: The Potency was inconclusive: 35.5 µM [inhibitor, single point].

Question: How did the Potency turn out when `O=C(N/N=C/c1ccc(-c2ccc(Br)cc2)o1)c1ccc2c(c1)OCO2` was run?
Answer: The Potency was inconclusive: 35.5 µM [inhibitor, single point].

Question: Which Potency does the source give for `O=C(Cn1nc(Cl)nc1Cl)c1cc2ccccc2oc1=O` here?
Answer: The Potency was inconclusive: 28.2 µM [inhibitor, partial curve].

Question: `CCOc1cc(-c2c(C#N)c(N)nc3c2CCc2ccccc2-3)ccc1O` was tested. Which Potency did it give?
Answer: The Potency was inconclusive: 35.5 µM [inhibitor, partial curve].

Question: With `O=c1[nH]c(CN2CCc3ccccc32)nc2scc(-c3cccs3)c12` as the compound, how does the Potency read?
Answer: Its Potency is inconclusive: 28.2 µM [inhibitor, single point].

Question: Which Potency does the source give for `COC(=O)c1ccc(CC(=O)c2ccc(O)cc2O)o1` here?
Answer: Its Potency is inconclusive: 39.8 µM [inhibitor, single point].

Question: How did the Potency turn out when `COC(=O)c1sccc1NC(=O)c1ccco1` was run?
Answer: Its Potency is inconclusive: 39.8 µM [inhibitor, single point].

Question: Which Potency does the source give for `COc1cc(O)c2c(=O)cc(C)oc2c1CC=C(C)C` here?
Answer: Its Potency is inconclusive: 35.5 µM [inhibitor, single point].

Question: How did the Potency turn out when `CCN(CC)S(=O)(=O)c1ccc2[nH]cc(C(=O)NCCc3ccccc3)c(=O)c2c1` was run?
Answer: The Potency was inconclusive: 39.8 µM [inhibitor, single point].

Question: With `COc1cccc2cc(-c3nc(-c4cccs4)cs3)c(=O)oc12` as the compound, how does the Potency read?
Answer: The Potency was inconclusive: 39.8 µM [inhibitor, single point].

Question: For `Cc1cc2ccccc2c(=O)n1CC(=O)NCC(=O)N1CCCC(C)C1` (centres undefined), which Potency is on record?
Answer: The Potency was inconclusive: 25.1 µM [inhibitor, partial curve].

Question: Which Potency does the source give for `O=c1[nH]c(CSc2ncnc3sccc23)nc2ccccc12` here?
Answer: Its Potency is inconclusive: 20 µM [inhibitor, single point].

Question: How did the Potency turn out when `COCCNC(=O)c1cccc(Nc2nc(-c3ccccc3)c3cc(Cl)ccc3n2)c1` was run?
Answer: The Potency was inconclusive: 8.91 µM [inhibitor, single point].

Question: How did the Potency turn out when `CC1(C)OC(=O)N(c2ccccc2)C12C=Cc1cc(Br)ccc1O2` (centres undefined) was run?
Answer: The Potency was “inactive”.

Question: How did the Potency turn out when `COC(=O)C1C(=O)C2=C(CC1C)NC(C)=C(C(=O)OCc1ccc(OC)cc1)C2c1ccc(C)o1` (centres undefined) was run?
Answer: The Potency was inconclusive: 35.5 µM [inhibitor, single point].

Question: `COc1ccc(-c2cc(C(F)(F)F)nc(NCc3cccnc3)n2)cc1` was tested. Which Potency did it give?
Answer: Its Potency is inconclusive: 28.2 µM [inhibitor, single point].

Question: For `N=c1c(S(=O)(=O)c2ccc(Cl)cc2)cc2c(=O)n3ccccc3nc2n1CCN1CCOCC1`, which Potency is on record?
Answer: Its Potency is inconclusive: 7.08 µM [inhibitor, partial curve].

Question: How did the Potency turn out when `Cc1ccc(C)c(S(=O)(=O)Nc2ccccc2C(=O)Nc2ccc(S(=O)(=O)Nc3ncccn3)cc2)c1` was run?
Answer: Its Potency is inconclusive: 20 µM [inhibitor, partial curve].

Question: Which Potency does the source give for `CC(C)(C)c1ccc(C(=O)Nc2sc3c(c2C(=O)O)CCC3)cc1` here?
Answer: Its Potency is inconclusive: 0.0398 µM [inhibitor, full curve].

Question: `Cc1nc2cc(NC(=O)Nc3ccc(Br)cc3)ccc2o1` was tested. Which Potency did it give?
Answer: The Potency was inconclusive: 39.8 µM [inhibitor, single point].
